Changes are numbered by the printed parent chain. No constants are given. Whether binding was seen depends on the method and setting. Some entries that bind do so weakly or less than the wild type.
What was measured:
Test in all cases: two-hybrid; yeast strain YRG-2; BTG2 or TOB1 fused to the GAL4 DNA-binding domain, Caf1a or Caf1b fused to the GAL4 activation domain; LacZ reporter under five GAL4 consensus sequences; β-galactosidase activity (Beta-GLO) normalised to OD600; triplicate
[1] = target: T1, Gal4-DNA binding domain-TOB1 (human) (UniProt P50616)
T1 sequence: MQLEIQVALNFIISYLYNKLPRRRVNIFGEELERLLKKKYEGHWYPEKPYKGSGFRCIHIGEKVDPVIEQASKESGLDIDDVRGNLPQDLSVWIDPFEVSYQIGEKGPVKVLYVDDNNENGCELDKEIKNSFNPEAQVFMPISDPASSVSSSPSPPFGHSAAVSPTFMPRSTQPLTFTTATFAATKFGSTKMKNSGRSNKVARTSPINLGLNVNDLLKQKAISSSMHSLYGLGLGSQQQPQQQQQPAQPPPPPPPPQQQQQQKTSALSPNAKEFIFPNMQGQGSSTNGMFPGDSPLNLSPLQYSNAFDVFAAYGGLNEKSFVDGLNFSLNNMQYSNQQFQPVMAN

Protein sequences, listed by entry. Tags and fused reporters are not part of them. Lines headed by an entry give the natural chain unless they say otherwise; changes in a name come on top.
UniProt P78543: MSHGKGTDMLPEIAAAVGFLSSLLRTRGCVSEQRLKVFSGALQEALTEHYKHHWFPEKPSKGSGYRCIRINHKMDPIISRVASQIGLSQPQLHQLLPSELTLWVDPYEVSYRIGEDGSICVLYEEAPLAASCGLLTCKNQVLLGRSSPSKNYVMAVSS
UniProt Q9UFF9: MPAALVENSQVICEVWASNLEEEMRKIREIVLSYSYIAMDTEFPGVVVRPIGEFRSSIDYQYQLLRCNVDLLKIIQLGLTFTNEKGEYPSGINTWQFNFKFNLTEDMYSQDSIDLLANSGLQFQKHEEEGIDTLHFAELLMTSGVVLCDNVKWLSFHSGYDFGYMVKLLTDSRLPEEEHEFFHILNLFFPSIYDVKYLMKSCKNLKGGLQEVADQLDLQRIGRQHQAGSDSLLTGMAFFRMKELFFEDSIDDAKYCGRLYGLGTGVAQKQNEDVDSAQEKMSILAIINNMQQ
UniProt Q9UIV1: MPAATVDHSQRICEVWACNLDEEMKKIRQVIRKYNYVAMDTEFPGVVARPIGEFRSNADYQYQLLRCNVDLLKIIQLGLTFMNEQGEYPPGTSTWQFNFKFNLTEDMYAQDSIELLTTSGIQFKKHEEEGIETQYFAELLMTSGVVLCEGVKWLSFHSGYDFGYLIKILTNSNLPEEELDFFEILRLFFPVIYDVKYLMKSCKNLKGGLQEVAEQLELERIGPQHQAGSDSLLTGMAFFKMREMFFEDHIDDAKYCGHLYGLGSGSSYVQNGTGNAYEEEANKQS

[2] = target: T2, Gal4-DNA binding domain-TOB1 D95A (human) (UniProt P50616)
T2 sequence: T1 sequence with D95A

[3] = target: T3, Gal4-DNA binding domain-TOB1 E105A (human) (UniProt P50616)
T3 sequence: T1 sequence with E105A

[4] = target: T4, Gal4-DNA binding domain-TOB1 E98A (human) (UniProt P50616)
T4 sequence: T1 sequence with E98A

Gal4DB-HA-BTG2 (human) = Gal4DB-HA-BTG2 (human) (UniProt P78543)
[5] = target: Gal4DB-HA-BTG2 H53A (human) (UniProt P78543)

## Gal4AD-Caf1b (from UniProt Q9UFF9 1-292) (enzyme)
[1]
  binding: binds
[2]
  binding: binds
[3]
  binding: binds
[4]
  binding: binds
Gal4DB-HA-BTG2 (human)
  binding: binds
[5]
  binding: no binding

## Gal4AD-Caf1a (from UniProt Q9UIV1 1-285) (enzyme)
[1]
  binding: binds
[2]
  binding: binds
[3]
  binding: binds
[4]
  binding: binds
